Publication PMC9235362 (Journal of medicinal chemistry, 2021)
Where two headings read alike, the source gives them in different places.

Molecular target: human 5-HT2ARs (Homo sapiens, UniProt P28223)
Settings: [125I](±)DOI

UniProt P28223, sequence (P28223 whole entry): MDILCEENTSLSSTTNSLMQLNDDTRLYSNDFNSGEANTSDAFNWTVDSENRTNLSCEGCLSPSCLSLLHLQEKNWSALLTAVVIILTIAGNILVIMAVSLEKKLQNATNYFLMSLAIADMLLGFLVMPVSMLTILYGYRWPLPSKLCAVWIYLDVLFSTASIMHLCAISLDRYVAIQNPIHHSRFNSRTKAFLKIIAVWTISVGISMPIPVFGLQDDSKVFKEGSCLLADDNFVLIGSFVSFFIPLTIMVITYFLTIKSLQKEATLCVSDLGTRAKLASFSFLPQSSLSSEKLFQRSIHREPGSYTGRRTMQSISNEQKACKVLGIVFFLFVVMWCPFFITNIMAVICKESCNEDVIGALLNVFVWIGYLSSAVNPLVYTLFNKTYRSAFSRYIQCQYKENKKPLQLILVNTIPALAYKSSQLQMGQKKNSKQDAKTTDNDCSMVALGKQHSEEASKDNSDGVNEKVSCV

CC[C@@H]1CN2CCc3c([nH]c4cccc(O)c34)[C@@H]2C[C@@H]1/C(=C\OC)C(=O)OC [9-hydroxycorynantheidine]
Percent displacement of radioligand, 5-HT2A (100 nM alkaloid): −6.5% | Percent displacement of radioligand, 5-HT2A (10,000 nM alkaloid): 28.4%

CC[C@@H]1CN2CCc3c([nH]c4ccccc34)[C@@H]2C[C@@H]1/C(=C\OC)C(=O)OC [corynantheidine]
Percent displacement of radioligand, 5-HT2A (100 nM alkaloid): −6.8% | Percent displacement of radioligand, 5-HT2A (10,000 nM alkaloid): 28.7%

CC[C@H]1CN2CCc3c([nH]c4cccc(OC)c34)[C@@H]2C[C@@H]1/C(=C\OC)C(=O)OC [speciogynine, Methyl(E)-2-((2S,3R,12bS)-3-ethyl-8-methoxy-1,2,3,4,6,7,12,12b-octahydroindolo[2,3-a]quinolizin-2-yl)-3-methoxyacrylate]
Percent displacement of radioligand, 5-HT2A (10,000 nM alkaloid): 82.7%

Methyl(4S,4aR,13bS,14aS)-4-methyl-4a,5,7,8,13,13b,14,14a-octahydro-4H-indolo[2,3-a]pyrano[3,4-g]quinolizine-1-carboxylate [ajmalicine]
Percent displacement of radioligand, 5-HT2A (100 nM alkaloid): 5.1% | Percent displacement of radioligand, 5-HT2A (10,000 nM alkaloid): 36.5%
